Test results reported in PubChem BioAssay AID1963576 (National Center for Advancing Translational Sciences (NCATS), 2024).
The whole screen tested about 46,000 compounds, of which about 60 (0.1%) were called active. About 3% were inconclusive and are not listed. Calls come from the whole dose curve; as a rule, active = well fitted inhibition curve with a large enough effect; inconclusive = small, poorly fitted or top-dose-only effect; inactive = no such curve, though single readings can be large or run the other way. This is one part of the list.

test: Primary qHTS assay for Inhibitors of ovarian cancer metastasis using an organotypic tumor microenvironment (TME) model.; note: nearly all actives have a fitted effect of over 65% in size;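 for activity change, negative = inhibition: plate controls were DMSO wells for no effect and tomatine positive control wells for full effect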; conditions: SKOV3ip1-GFP adhesion/invasion on 3D omental model, fluorescence; series mostly up to 45.8 µM; activity change, negative = inhibition: at the top concentration
How it was run: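 qHTS, 4-pt dose (0.36-46 umol/L); SKOV3ip1-GFP, 1,200 cells/well, no FBS; primary omental fibroblast/mesothelial co-culture 48 h pre-grown; 2 h RT + 16 h 37 C; PBS wash, 4% PFA; GFP count 488/509 nm.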

| SMILES | activity change, negative = inhibition | outcome |
| --- | --- | --- |
| COc1cc(OC)c(NC(=O)c2c(C)oc3nc(C)nc(N4CCOCC4)c23)cc1Cl | inactive: -14.3% |  |
| CCn1ccc2cc(S(=O)(=O)N3CCC(C(=O)NCCc4ccccc4)CC3)ccc21 | inactive: 0.17% |  |
| CC(=O)C1=C(c2ccc(Br)cc2)N(C(C)=O)n2c(nnc2C2CCCCC2)S1 | inactive: 8.25% |  |
| Cc1ccc2scc(N3CCCCC3)c(=O)c2c1 | inactive: 4.12% |  |
| CCOC(=O)c1cc(-c2ccccc2)n(CCC(=O)Nc2cc(C)cc(C)c2)c1C | inactive: -1.39% |  |
| COc1ccc(NC(=O)CC2C(=O)N(c3ccc(F)cc3)C(=O)N2CCc2sccc2C)cc1 (stereo not drawn) | inactive: 1.02% |  |
| Nc1ccc2nc(-c3ccc(O)cc3)sc2c1 | inactive: 0.439% |  |
| O=C(Cn1c(=O)oc2cc(S(=O)(=O)NCc3ccccc3)ccc21)NCc1ccccc1Cl |  | inactive |
| COCCCNC(=O)c1cnn(-c2ccc(F)cc2F)c1C1CCNCC1 |  | inactive |
| Cc1ccc2nc(NC(=O)c3nc(SCc4ccccc4C)ncc3Cl)sc2c1 |  | inactive |
| Cc1ccc(N2CCN(C(=O)C3CCN(c4ncnc5c4nc4n5CCCCC4)CC3)CC2)c(C)c1 |  | inactive |
| CC(C)C(=O)Nc1ncc(-c2cc(C(F)F)nn2-c2c(Cl)cccc2Cl)s1 | inactive: -24.3% |  |
| CN(Cc1ccccc1)C(=O)C1CCC(CNS(=O)(=O)c2ccc3c(c2)CCCC(=O)N3)CC1 (stereo not drawn) |  | inactive |
| CC(=O)N1CCC2(CC1)OC(=O)C(C)=C2C(=O)NCc1cccc(Cl)c1 | inactive: 5.12% |  |
| CCc1nn(CC(=O)NCCCc2ccccc2)c(=O)c2cc3c(OC)cccc3n12 |  | inactive |
| Cc1ccc2ncc(C(=O)NC(C)c3ccccc3)c(=O)n2c1 (stereo not drawn) | inactive: -0.713% |  |
| O=C(O)CCc1nnc2cnc3ccccc3n12 |  | inactive |
| Cc1ccc(CNC(=O)c2cnc3c(-c4ccccc4)c(C)nn3c2C)o1 | inactive: 9.1% |  |
| O=[N+]([O-])c1cc(-c2nc(-c3ccccn3)no2)ccc1NCc1ccccc1 |  | inactive |
| Cc1ccc(C(=O)Nc2nnc(S(=O)(=O)N3CCN(c4ccc(F)cc4)CC3)s2)cc1 | inactive: -13.3% |  |
| Cc1ccc(CN2CCCn3nc(C(=O)NCc4cc(C)ccc4C)cc3C2=O)cc1 | inactive: -2.89% |  |
| COc1cc(NC(=O)NCC2CCN(Cc3ccc(C)cc3)CC2)cc(OC)c1OC | inactive: -25.1% |  |
| Cc1ccc(N2C(=O)CS(=O)(=O)C23C(=O)N(C)c2ccccc23)cc1F (stereo not drawn) | inactive: -8.96% |  |
| Cc1ccc(N2CCN(C(=O)c3c(C)oc4ncnc(N5CCOCC5)c34)CC2)c(C)c1 | inactive: 4.7% |  |

| SMILES | activity change, negative = inhibition | outcome |
| --- | --- | --- |
| CCOc1ccc(NC(=O)CSc2nnc(-c3ccncc3)n2-c2ccccc2)cc1 | inactive: 7.11% |  |
| COCCNC(=O)CSc1nc2cc3c(cc2c(=O)n1Cc1ccc(C(=O)NCCc2ccc(OC)c(OC)c2)cc1)OCO3 | inactive: -2.4% |  |
| O=C(NCCc1ccccc1)C(=O)NCC(c1ccco1)S(=O)(=O)c1ccccc1 (stereo not drawn) | inactive: -7.14% |  |
| COCCCNC(=O)CCC(=O)NNc1nc2ccccc2c2nc(-c3ccccc3)nn12 | inactive: 14.8% |  |
| COc1ccc(NC(=O)C(C)n2nc(-c3cc(C)ccc3C)c3c(c2=O)CCCC3)cc1 (stereo not drawn) |  | inactive |
| CCc1cccc(NC(=O)CSc2ncc3c(n2)-c2ccccc2N(CC)S3(=O)=O)c1 | inactive: -12.5% |  |
| COc1ccc(CNC(=O)c2ccc(CSc3nc4ccncc4n3Cc3ccccc3F)cc2)cc1 | inactive: 6.02% |  |
| Cc1ccc(C)c(-n2cc(-c3ccccc3)nc2SCC(=O)Nc2ccccc2)c1 | inactive: 3.16% |  |
| Cc1nc(N2CCCC2)ncc1C(=O)N1CCN(c2ccc(Cl)cc2)CC1 | inactive: -7.96% |  |
| Cc1nc2c(C(=O)NCc3ccccc3Cl)cnn2c(C)c1Cc1ccccc1 |  | inactive |
| COc1ccc(NC(=O)Cn2c(=O)n(Cc3ccccc3)c(=O)c3oc4ccccc4c32)cc1Cl | inactive: -9.41% |  |
| CCOC(=O)C(=O)Nc1nnc2n1CCS2 |  | inactive |
| CCOc1ccc(Nc2ncnc3c2cnn3-c2ccc(F)cc2)cc1 | inactive: 3.22% |  |
| CCOC(=O)c1ccccc1NC(=O)Cn1c(=O)n(CCCC(=O)NCc2ccc3c(c2)OCO3)c(=O)c2ccccc21 | inactive: 7.07% |  |
| O=C(CSc1nc2c([nH]c3ccccc32)c(=O)n1-c1ccc(Cl)cc1)N1CCCCCC1 | inactive: 16.8% |  |
| COc1cccc(-c2csc(-c3c(N)c(C(=O)c4ccccc4)n4ccccc34)n2)c1 | inactive: -3.59% |  |
| Cc1ccnc(NC(=O)c2c(C)oc3ncn(CC(C)C)c(=O)c23)c1 | inactive: 10.2% |  |
| Cc1ccc(CNC(=O)Nc2cn(CC(C)C)c(=O)c3ccccc23)cc1 |  | inactive |
| COc1ccc(-c2cc3nc(C)c(CCC(=O)Nc4cccc(C(F)(F)F)c4)c(C)n3n2)c(OC)c1 | inactive: 23.7% |  |
| CCn1cc2nc(SCC(=O)Nc3ccccc3F)n(Cc3ccc(C)cc3)c(=O)c2n1 |  | inactive |
| CCc1ccc(-c2nc(CN3CCCC(C(=O)NCc4ccc(C)cc4)C3)c(C)o2)cc1 (stereo not drawn) | inactive: 3.44% |  |
| CC(=O)c1ccc(NC(=O)c2cc(-c3ccc4c(c3)OCO4)on2)cc1 |  | inactive |
| Cc1ccc(C(=O)Nc2ccccc2C(=O)O)cc1S(=O)(=O)N1CCCCCC1 | inactive: 1.69% |  |
| CCCCCOc1ccc(NC(=O)Cc2csc(C)n2)cc1 | inactive: -6.17% |  |
